Results from the supplement of paper PMC3334620.
The full ranking holds about 33,000 sequences; the median of “E-score (-0.5 to 0.5)” is about -0.016, and the highest 2% start at about 0.31. Some of the results follow.

Each sequence was assayed against Cst6 (UniProt P40535) (assay: PBM E-score (8-mer binding enrichment) (E-score (-0.5 to 0.5)); higher = stronger / more preferred TF binding; most listed sequences are background and not binding sites). Settings: protein concentration: 200 nM; construct: GST-DNA-binding domain.
Procedure: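 Universal 'all 10-mer' protein binding microarrays (Agilent AMADID 015681) probed with GST-tagged S. cerevisiae TFs (full-length or DBD) made by in vitro transcription/translation (PURExpress), about 100-200 nM. Bound TF was detected with fluorescent anti-GST. Each ungapped 8-mer (which stands for itself and its reverse complement) is scored by the PBM enrichment score (E-score), a modified Wilcoxon-Mann-Whitney statistic from -0.5 to +0.5, computed with the Universal PBM Analysis Suite. Scale: above 0.35 generally sequence-specific binding.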

Sequence	PBM E-score
ATAGGTAC	-0.0385
AGACCATG	-0.277
AGACGGAA	-0.0491
ACGAATTA	0.152
TCCCTAAA	0.0348
GAGTATAA	0.205
AAAGTGAA	0.0996
ATTCGGGC	-0.26
CTACTCAC	0.212
ACTCCACA	-0.0523
AACGGTTG	0.0747
CTAGATTC	-0.0987
CTAACTCA	-0.0172
ATCGAACA	-0.016
CGGATGGC	0.0649
ACATTTTA	0.293
GCGTTCGA	0.115
GCGCGGAC	0.09
GTAATTTA	0.333
CCCTGGTC	-0.407
CCCAATGC	-0.272
ACCTGAAT	0.207

Sequence	PBM E-score
ACCAAAGG	-0.0742
CGTTTTAA	0.0215
ACAGCAGT	-0.0163
AAACTCAA	0.137
CGAAGCGA	-0.125
ATGTTTCC	-0.055
CGTGGGTC	-0.208
AGAGGGAC	-0.256
GCCAGAGC	-0.317
AGCCCAAA	0.165
GGCGCAAA	0.234
CCCGCCAA	-0.22
CGGGCGGC	-0.0888
CAATCTCC	-0.0706
AACCCGAC	0.017
AAGTGACT	0.024
CCTGGTGA	0.076
CGGTTCGA	0.129
AGAGCCGG	-0.303
TAAGGAAA	0.104
ATTGTTAC	0.348
CAGTAGAG	-0.0984

Sequence	PBM E-score
CTGGCAAG	-0.208
AGCTTATG	0.116
ATTATCTC	0.182
AAAAGACG	0.244
ACAAGTTA	0.132
ACGTCTGC	0.00409
GAGTCGGA	-0.107
GGTGCAAC	-0.303
AGGACGCG	-0.192
CACGACCG	-0.261
AGCTCGCG	-0.0577
ACGCCGAG	-0.0115
AGTCTATG	-0.0165
ATCAAGCA	0.0121
TATGACGA	0.424
CTGCGGTC	-0.103
CCAGTATA	-0.0987
CCTTAAAA	0.0606
ATCCATAG	-0.307
GAAAGCCC	-0.0559
ATGAAGAA	0.194
GCTCATAC	0.0749

Sequence	PBM E-score
ATACTGGC	-0.14
GAATTCTC	-0.0278
AGAGCCCA	-0.263
GATCCACC	-0.214
AACGTGGT	-0.0291
GGCTGGTA	-0.241
CCATCGGG	-0.0981
AGGTGCAG	-0.202
AGTTGTGC	-0.128
CCGATTCC	-0.0983
CTCATTAA	0.0741
TCATTGGA	0.172
CCCTATGA	0.019
CCATTGCG	0.0501
ATAAGCAA	0.0764
TGAGTACA	0.121
AAGGCACT	-0.0255
TGAGACAA	-0.0491
ATGCGGTG	-0.1
GAACCATA	-0.0707
CCTTGAAA	-0.0379
ACACCTCG	-0.0507

Sequence	PBM E-score
GAGGACGA	-0.081
ATTGCACG	0.0893
CTCCCTGC	-0.218
CCGGTAGC	-0.315
CTCAGTTA	0.0388
CGAAGAAC	0.175
AATTAGTA	0.262
AGTCTCTA	-0.101
GTGCGAGA	-0.0281
CGGTCGAG	-0.15
CTCTCTCC	-0.253
TGATGAAA	0.289
GCAGGAAA	-0.094
ACGTGACA	0.248
ACTGGACA	-0.235
ACTACTCT	0.0211
GACCGAGC	-0.233
ACACCGAA	0.124
AGCGTCTA	-0.207
GTCCGTCA	0.227
AGAAACCT	-0.0469
